Some of the results follow. Shown are side measurements of this screen, not its main read-out; they come without a call.
How the values were obtained:
Assay in all cases: Primary Screen for Target Class Profiling of Small Molecule Inhibitors of Methyltransferases
[1] = target: Glycine N-methyltransferase (Homo sapiens) (UniProt Q14749); details: purified enzyme, MTase-Glo SAH luminescence; measured here: GNMT inhibition; at 40 µM; stronger effect = lower value
Method in brief: (§1)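 Each enzyme was reacted with SAM and its substrate, with compounds tested once at 40 uM; SAH formed was read by MTase-Glo luminescence.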

[2] = target: Guanidinoacetate N-methyltransferase (Homo sapiens) (UniProt Q14353); details: purified enzyme, MTase-Glo SAH luminescence; measured here: GAMT inhibition; at 40 µM; stronger effect = lower value
Method in brief: as §1

[3] = target: Histamine N-methyltransferase (Homo sapiens) (UniProt P50135); details: purified enzyme, MTase-Glo SAH luminescence; measured here: HNMT inhibition; at 40 µM; stronger effect = lower value
Method in brief: as §1

[4] = target: Nicotinamide N-methyltransferase (Homo sapiens) (UniProt P40261); details: purified enzyme, MTase-Glo SAH luminescence; measured here: NNMT inhibition; at 40 µM; stronger effect = lower value
Method in brief: as §1

[5] = target: Phenylethanolamine N-methyltransferase (Homo sapiens) (UniProt P11086); details: purified enzyme, MTase-Glo SAH luminescence; measured here: PNMT inhibition; at 40 µM; stronger effect = lower value
Method in brief: as §1
% is scaled to controls: 0 for no effect and ±100 for the full control effect.

SMILES	activity change, negative = inhibition [1]	activity change, negative = inhibition [2]	activity change, negative = inhibition [3]	activity change, negative = inhibition [4]	activity change, negative = inhibition [5]
Cc1cnc(C(=O)N2CCCC2c2nc(CCOCC3CCCC3)no2)cn1 (stereo not drawn)	-3.94%	-5.47%	-0.966%	-9.76%	-5.2%
C#CCN(Cc1cc2c(=O)n(C)c(CN3CCN(C)CC3)nc2cc1Cl)c1ccc(C(=O)NCc2cccnc2)cc1	-9.41%	16.3%	-36.1%	-11.4%	-0.901%
Cc1ccc2c(c1)c(-n1cccc1)c1n2CC(C)(C(=O)NC2CCCCC2)N(Cc2ccco2)C1=O (stereo not drawn)	-14.7%	-2.18%	-8.97%	-8.75%	-8.71%
Oc1ccc([C@@H]2Oc3ccc(O)cc3[C@@H]3CCC[C@@H]32)cc1	-10.6%	1.27%	-29.2%	-12.3%	-1.01%
Cc1c(Cl)cccc1N1C(=O)c2cc(-c3ccco3)nn2CC1(C)C(=O)NC1CCCCC1 (stereo not drawn)	-6.97%	3.23%	-4.97%	1.48%	-5.96%
Cc1cc(-c2nc(C(=O)Nc3cn(C4CCOCC4)nc3C(N)=O)co2)ccn1	–	-10.2%	–	-18.4%	-1.66%
Cc1ccccc1NC(=O)CN(C)S(=O)(=O)c1ccc2[nH]c3c(c2c1)CCCC3	-0.974%	0%	4.24%	0.137%	3.2%
CCCC1c2cccn2CCN1C(=O)Nc1ccc(Br)cc1F (stereo not drawn)	-1.06%	1.38%	-39.2%	0.537%	4.75%
CC(C)CNC(=O)c1ccc2c(=O)n(CC(C)C)c3nn(CC(=O)N(C)c4ccccc4)c(=O)n3c2c1	2.83%	3.4%	5.25%	-4.32%	-1.08%
CN(CCCN1C(=O)c2cc3occc3n2CC1(C)C(=O)NC1CCCCCC1)Cc1ccccc1 (stereo not drawn)	-5.72%	-4.08%	-8.35%	-4.34%	-5.48%
Cc1ccccc1CN1C(=O)c2cc3occc3n2CC1(C)C(=O)NC1CCCCCC1 (stereo not drawn)	-0.653%	3.21%	2.73%	-7.9%	-8.2%
CC(C)(C)NC(=O)Cn1nc2n(Cc3ccccc3)c(=O)c3ccc(C(=O)NC4CCCC4)cc3n2c1=O	1.03%	2.43%	4.49%	-2.53%	1.29%
C=C1CO[C@@]2(O[C@H]3CC4C5CC=C6C[C@@H](O)C[C@@H](O[C@@H]7OC[C@H](O)[C@H](O[C@@H]8OC[C@@H](O)[C@H](O)[C@H]8O)[C@H]7O[C@@H]7O[C@@H](C)[C@H](OC(C)=O)[C@@H](OC(C)=O)[C@H]7OC(C)=O)[C@]6(C)C5CC[C@]4(C)[C@@H]3[C@@H]2C)[C@@H](O)[C@H]1OC1OC(C)C(O)C(O)C1O (stereo partly drawn)	4.62%	1.71%	5.47%	-8.07%	6.29%
COc1ccc2cc3n(c2c1)CC(C)(C(=O)NC1CCCC1)N(Cc1ccccc1F)C3=O (stereo not drawn)	4.39%	2.91%	9.41%	4.54%	2.57%
CC1(C(=O)NC2CCCCC2)Cn2c(ccc2-c2ccco2)C(=O)N1Cc1cccs1 (stereo not drawn)	-13.2%	1.01%	-5.42%	-18.6%	-5.14%
COc1ccc(Cl)cc1NC(=O)Cn1nc2n(Cc3ccccc3)c(=O)c3ccccc3n2c1=O	6.42%	0.803%	4.9%	3.67%	4.43%
CC(O)C(C)n1ncn(-c2ccc(N3CCN(c4ccc(OCC5COC(Cn6cncn6)(c6ccc(Cl)cc6Cl)O5)cc4)CC3)cc2)c1=O (stereo not drawn)	-1.97%	7.2%	6.86%	-0.785%	10.7%
CCCn1c(=O)c2ccc(Cl)cc2n2c(=O)n(CC(=O)Nc3cc(C)cc(C)c3)nc12	3.2%	0%	6.25%	3.2%	1.02%
CC(C)OCCCn1c(=O)c2ccccc2n2c(SCC(=O)Nc3ccccc3F)nnc12	-5.57%	3.44%	-0.715%	-3.63%	-0.406%
O=S(=O)(Cc1ccccc1)Nc1ccc(-c2ccc3c(cnn3-c3ccc(F)cc3)c2)c(C(F)(F)F)c1	-1.6%	-22.4%	6.12%	-36.5%	-10.3%
CNC(=O)c1nn(C)c2c1C(C)(C)Cc1cnc(Nc3ccc(N4CCN(C)CC4)cc3)nc1-2	-6.97%	7.07%	-36.3%	-11%	6.28%
CCOC(=O)C1CCC(CNC(=O)N2CCn3c(C)ccc3C2CC)CC1 (stereo not drawn)	1.82%	0%	2.05%	4.62%	-2.33%
CCOC(=O)c1cc2n(n1)CC(C)(C(=O)NCc1ccc(Cl)cc1)N(Cc1cccc(C)c1)C2=O (stereo not drawn)	7.5%	0%	10.9%	4.56%	8.07%
O=C(O)CCc1nccc2c1[nH]c1ccccc12	-4.11%	-2.95%	4.99%	-11.2%	-2.97%
COc1cc(C(=O)OC[C@@]2(O)CO[C@@H](O[C@H]3[C@H](Oc4ccc(C(=O)O)cc4OC)O[C@H](CO)[C@@H](O)[C@@H]3O)[C@@H]2O)ccc1O	0%	3.37%	2.64%	-8.52%	5.68%
O=C(CCc1ccccc1)N1CCCC(CN2CCCC2)CC1 (stereo not drawn)	-10.7%	-7.43%	-29.4%	-15.4%	-8.86%
CC(C)OCCCNC(=O)C1c2c(n(C)c3ccccc23)SCC(=O)N1c1ccccc1F (stereo not drawn)	5.66%	2.56%	-1.54%	-4.7%	0.082%
COc1cc(OC)cc(N2C(=O)CSc3c(c4ccccc4n3C)C2C(=O)NCc2ccccc2OC)c1 (stereo not drawn)	5.87%	2.9%	0.975%	-6.79%	-0.066%

Reference: PubChem BioAssay AID1745853 (National Center for Advancing Translational Sciences (NCATS), 2022)
